Data as given in the supplement of paper PMC10986608.
The list shows a part of the results. Many values rest on one well or one pass, so single values are uncertain.

These compounds were tested on Candida albicans DPL-15 (assay: growth (OD600) after compound treatment (apparently relative to screen median) (relative growth (fraction; screen median 1.02)); DPL-15 is a caspofungin-resistant clinical isolate; higher = more fungal growth (less antifungal activity)). Conditions: 25 µM; RPMI 1640; 48 h; 30 °C.

Row | SMILES | growth
1 | O=C1CC2(CCCCC2)CNC(=O)c2cccc(c2)-c2[nH]ncc2COCCOCCN1 | 1.37
2 | CC(C)Cc1n[nH]c2c1C(C1CCCCC1)N(c1ccc(Br)cc1)C2=O (centres undefined) | 1.05
3 | C#C[C@]1(O)C(OC)=C[C@@H]2C(=O)[C@H]1[C@H](c1ccccc1)[C@H]2C | 1.01
4 | C#CCOc1ccccc1CNC(=O)CC1(CNC(=O)c2cccc(/C=N/NS(=O)(=O)c3ccc(C)cc3)c2)CCCCC1 | 1.06
5 | Cc1cc(C)cc(-n2nc(-c3ccccc3)c3c2C(=O)NC3c2ccc(Br)cc2)c1 (centres undefined) | 0.768
6 | CC(C)(C)NS(=O)(=O)OCCCCC1OCCO1 | 1.07
7 | Cc1nn(-c2ccc(F)cc2)c2c1C(c1ccc(Br)cc1)NC2=O (centres undefined) | 1.18
8 | Brc1ccc(-c2ccc3c(n2)CCCN3C[C@@H]2CO2)cc1 | 0.96
9 | CC(C)(C)c1ccc(C#C[C@@H]2C=C[C@@H](OC(N)=O)[C@@H](COC(N)=O)O2)cc1 | 0.983
10 | Cn1cc(Nc2cc(O)cc(O)c2C(=O)N2CC[C@H](F)C2)cn1 | 1.07
11 | CC(=O)OC[C@H]1O[C@H](c2ccccc2F)C=C[C@H]1OC(C)=O | 0.929
12 | CC(=O)OC[C@H]1O[C@H](C#Cc2ccc(Br)cc2)C=C[C@@H]1OC(C)=O | 0.986
13 | COC(=O)C1=C(C)N(Cc2ccc(C(F)(F)F)cc2)C(NCCc2ccccn2)=NC1c1cccc(Cl)c1 (centres undefined) | 1.04
14 | CC(=O)OC[C@H]1O[C@H](C#Cc2ccccc2C)C=C[C@H]1OC(C)=O | 0.867
15 | COc1c(C)c(C)c(C(=O)OC/C=C/c2ccccc2)c(O)c1C | 0.933
16 | CCCCC[C@]12Cc3cc(OC)c(OC)cc3[C@H](O1)c1c(c3ccccc3n(C)c1=O)O2 | 0.916
17 | CC(C)=CCCC1=CC[C@@H](C(=O)c2ccccc2O)[C@H](c2ccccc2)C1 | 1.06
18 | C[C@H]1C[C@@H]2CC(=O)N3CCC[C@@H]3C(=O)N2[C@H]1c1ccccc1 | 1.18
19 | CCCN1C(NCc2cccc(C(F)(F)F)c2)=NC(c2ccc(F)cc2)C(C(=O)OC)=C1C (centres undefined) | 1.14
20 | CC1=NCC(C)(C)NC2=C1C(c1ccccc1)N(c1ccccc1)C2=O (centres undefined) | 1.03
21 | COC(=O)c1cc2c(c3c4cc(C)ccc4n(S(=O)(=O)c4ccc(C)cc4)c13)C(=O)N(Cc1cccc(F)c1)C2 | 1.02
22 | CC(=O)OC[C@H]1O[C@H](C#Cc2ccc(C)cc2)C=C[C@@H]1OC(C)=O | 0.817
23 | COc1ccc(N2C(=O)c3[nH]nc(CC(C)C)c3C2c2nccs2)cc1 (centres undefined) | 1.3
24 | CC(C)C1=NCCN(C)C2=C1C(c1ccc3c(c1)OCO3)N(c1ccccc1)C2=O (centres undefined) | 0.998
25 | Cc1cc2c(nc1C)CCCN2S(=O)(=O)c1ccc(C(F)(F)F)cc1 | 0.898
26 | Cc1cc(O)c2c3c4c(cc(O)c13)O[C@@]1(c3ccc([N+](=O)[O-])cc3)OCC[C@H]1[C@H]4OC2=O | 1.08
27 | COC(=O)c1[nH]c2ccc(F)cc2c1[C@]12CCN(C(=O)c3ccc(S(C)(=O)=O)cc3)[C@H]1Nc1ccccc12 | 1.14

Row | SMILES | growth
28 | CC(C)Cc1nn(-c2ccccc2)c2c1C(c1cccc(C(F)(F)F)c1)NC2=O (centres undefined) | 1.15
29 | CC(C)Cc1n[nH]c2c1C(c1ccc(F)cc1)N(c1ccc(O)cc1)C2=O (centres undefined) | 1.11
30 | Cc1cc(C)cc(-n2nc(-c3ccccc3)c3c2C(=O)NC3c2ccccc2)c1 (centres undefined) | 0.809
31 | CC(C)(O)Cn1nc2cc1COC[C@@H](c1ccccc1)NC(=O)CC1(CCCCC1)CNC(=O)c1cccc-2c1 | 1.01
32 | COc1cc2c(cc1OC)C[N@H+](CCc1ccc(NC(=O)c3cccc4c(=O)c5cccc(OC)c5[nH]c34)cc1)CC2 | 1.12
33 | COC(=O)C1=C(C)N(CCCOC(C)C)C(NCc2cccc(C(F)(F)F)c2)=NC1c1ccccc1 (centres undefined) | 1.03
34 | C=CCC1=C(OC)[C@@]2(CC=C)C[C@@H]3[C@@H](c4ccc(Br)cc4)[C@](O)(c4ccccc4)[C@]3(C1=O)C2=O | 1.03
35 | CC(=O)OC[C@H]1O[C@H](c2ccc3c(c2)OCO3)C=C[C@H]1OC(C)=O | 0.767
36 | COC(=O)[C@@]12Oc3ccc(I)c(O)c3C(=O)C1=C(OC)CC[C@H]2OC(C)=O | 0.964
37 | CC(C)CCc1cc(OCC(=O)NCC(=O)NCc2ccccc2)cc2oc3ccccc3c(=O)c12 | 1.03
38 | CCOC(=O)c1nnc2c3ccccc3n(COC)c2n1 | 1.24
39 | COCn1c2ccccc2c2cc3c(nc21)C(=O)OC3C (centres undefined) | 1.04
40 | COc1ccc(N2C(=O)c3[nH]nc(CC(C)C)c3[C@H]2c2ccc(F)cc2C)cc1 | 1.2
41 | COC(=O)C1=CC(OC)=C(Cl)C(=O)C1(OC)OC | 1.11
42 | O=S(OCCC(C)CC/C=C(C)/C)(NC(C)(C)C)=O (centres undefined) | 0.876
43 | C/C=C(\C)C1=C2CC[C@H](C(C)C)O[C@@H]2CCCN1S(=O)(=O)c1ccc(C)cc1 | 0.977
44 | CCc1ccccc1-n1nc(C)c2c1C(=O)NC2c1cccc(C(F)(F)F)c1 (centres undefined) | 0.859
45 | CO[C@@H]1CCN(C(=O)c2c(O)cc(O)cc2Nc2cnn(CCN(C)C)c2)C1 | 1.12
46 | Cc1ccc(S(=O)(=O)Oc2c(C[C@@]34CCCCC3=Nc3ccc(F)cc34)occc2=O)cc1 | 1.08
47 | COc1ccccc1Cn1nc(C(C)C)c2c1C(=O)NC2c1ccc2c(c1)OCO2 (centres undefined) | 0.853
48 | C[C@H]1C[C@@H]2CC(=O)N[C@H](Cc3ccccc3)C(=O)N2[C@H]1C1CC1 | 0.954
49 | CC(=O)C1=C2C=CCCN2C(=O)NC1c1ccc(Br)c(F)c1 (centres undefined) | 1.28
50 | CCCCC1=Nc2ccccc2[C@@]1(CCC)Cc1occc(=O)c1OS(C)(=O)=O | 0.981
51 | CCOC(=O)c1nnc(-c2ccccc2)c(=O)[nH]1 | 1
52 | Cn1nc2c(c1-c1ccccc1)C(c1ccc(Br)cc1)N(c1ccccc1)C2=O (centres undefined) | 1.09
53 | CCN(CC)CCCNC1=NC(c2ccc(Cl)cc2)C(C(=O)OC)=C(C)N1Cc1cccc(C(F)(F)F)c1 (centres undefined) | 0.959
54 | COC1(OC)C(=O)C=C[C@H]2[C@@H]1[C@H]1C=C[C@@H]2C(=O)C1(OC)OC | 0.922

Row | SMILES | growth
55 | CC(C)CC1=NCC(C)(C)NC2=C1C(c1ccc(F)cc1)NC2=O (centres undefined) | 0.91
56 | COC(=O)[C@@]12Oc3cccc(O)c3C(=O)C1=C(O)CC[C@@H]2O | 1.19
57 | CO[C@@H]1CCN(C(=O)c2c(O)cc(O)cc2Nc2cn(C)nc2C)C1 | 1.09
58 | COc1ccc(-c2c(CO)c(CO)cc3cc4c(cc23)OCO4)cc1 | 1.06
59 | COC(=O)C/C=C/[C@H](C)[C@H](NC(=O)C(F)(F)F)c1ccc(-c2ccccc2)cc1 | 1
60 | COc1ccc(N2C(=O)c3[nH]nc(CC(C)C)c3C2c2ccc(F)cc2OC)cn1 (centres undefined) | 0.996
61 | Cc1cc(Nc2cc(O)cc(O)c2C(=O)N2CC3CC3C2)n(C)n1 (centres undefined) | 1.09
62 | CCCOc1ccc(/C=C/C(=O)O)c(OCCC)c1 | 1.03
63 | COc1ccc(N2C(=O)c3[nH]nc(CC(C)C)c3C2c2cccc(Br)c2)cc1 (centres undefined) | 1.11
64 | C=CCC1=C(OC)C(CC=C)(C/C=C/c2ccccc2)C(O)=C(C(=O)c2ccccc2)C1=O (centres undefined) | 0.953
65 | COc1ccc(N2C(=O)c3[nH]nc(CC(C)C)c3C2c2ccc(C(F)(F)F)cc2)cc1 (centres undefined) | 1.13
66 | C#Cc1ccccc1N1C[C@@]2(O)CC[C@@H](O)[C@@H](OC)[C@@H]2[C@@](C)(O)[C@@H]1CC=C(C)C | 1.07
67 | COC(=O)c1cc2c(c3c4cc(C)ccc4n(S(=O)(=O)c4ccc(C)cc4)c13)C(=O)N(Cc1ccc(C)cc1)C2 | 1.09
68 | COc1ccc([C@@]23Oc4cc(OC)cc(OC)c4[C@]2(O)C2=C(C(=O)N4CCC[C@H]4N2C)[C@H]3c2ccccc2)cc1 | 1.16
69 | CC(=O)C1=C(C)N(Cc2ccc(F)cc2)C(=S)NC1c1cccc(Cl)c1 (centres undefined) | 0.892
70 | C=CCOC(=O)C(C(C)=O)[C@@H](NC(=O)OC)c1cccc(F)c1 (some centres undefined) | 1.29
71 | CC(=O)OC[C@H]1O[C@H](C#Cc2ccccc2C)C=C[C@@H]1OC(C)=O | 1.03
72 | CC(C)c1c2c(nn1C)C(=O)N(c1ccccc1)C2c1ccc(F)cc1 (centres undefined) | 0.935
73 | C=CCN1C(=O)C2=C(C(CC(C)C)=NCC(C)(C)N2)C1c1ccc(F)cc1 (centres undefined) | 1.31
74 | CC1=Cc2cc(O[Si](C(C)C)(C(C)C)C(C)C)ccc2[C@@H]2C=C(C)C(=O)[C@H]2C1 | 1
75 | COc1ccc(F)cc1C1NC(=O)N2CCC=CC2=C1C(C)=O (centres undefined) | 0.905
76 | Cc1cc2c(c(=O)o1)[C@@]1(C(=O)N(C)c3c(Br)cccc31)C1=C(CCCC1=O)O2 | 1
77 | C[C@H]1CC[C@H]2C(=O)N(Cc3ccc(Cl)cc3)C[C@H](O)CN2[C@@H]1c1cccc(Br)c1 | 1.09
78 | CC(=O)OC[C@H]1O[C@H](C#Cc2cccc(OC34CC5C[C@H](C3)C[C@@H](C5)C4)c2)C=C[C@H]1OC(C)=O | 1.07
79 | COc1cc(CC=C(C)C)c2c(=O)c3c(oc2c1O)CCCC3 | 1.14
